According to PubChem BioAssay AID624418 (National Center for Advancing Translational Sciences (NCATS), 2012):
In all, about 410,000 compounds went through this assay and about 530 (0.13%) were called active. The shares of active, inactive and inconclusive entries below differ from those in the screen. Calls come from the whole dose curve; as a rule, active = well fitted inhibition curve with a large enough effect; inconclusive = small, poorly fitted or top-dose-only effect, or another doubt; inactive = no such curve, though single readings can be large or run the other way. Potencies of inconclusive entries are doubtful fits and often do not repeat.

Experiment: qHTS of GLP-1 Receptor Inverse Agonists: Cytotox Screen
Conditions: HEK293 cAMP-luciferase reporter cells, luminescence, 24 h; activity change, negative = inhibition: at 38.3 µM (top of the series) unless noted
Outline: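 MLSMR compounds, 24 hr on cells at 37 deg C/5% CO2; luminescence after luciferase reagent (12 min RT). Inhibition counted as the undesired cytotoxic outcome.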
% is set by controls: 0 for no effect and ±100 for the full control effect; potency is the fitted concentration of half-maximal effect.

For `O=S1(=O)CCS(=O)(=O)C1c1ccccc1`, which Potency is on record?
The Potency was inconclusive: 28.2 µM [inhibitor, single point].

For `Cc1ccc(C(C)C)c(OCCNCCc2ccccc2)c1`, which Potency is on record?
The Potency was inconclusive: 28.2 µM [inhibitor, single point].

Which Potency does the source give for `COC(=O)c1c(C)oc2c1cc(NS(=O)(=O)c1ccc(C(=O)O)cc1)c1ccccc12` here?
The Potency was inconclusive: 28.2 µM [inhibitor, single point].

For `S=C(NC1CCCC1)N1CCN(C/C=C/c2ccccc2)CC1`, which “activity change, negative = inhibition” value is on record?
Its value is inactive: -13.9%.

For `COc1cccc(NC(=S)NC(Cc2ccccc2)c2ccccc2)c1` (stereo unspecified), which Potency is on record?
The Potency was inconclusive: 8.91 µM [inhibitor, partial curve, poor fit].

With `O=C(CCl)N(O)c1ccc(C=Cc2ccccc2)cc1` as the compound, how does the Potency read?
The Potency was inconclusive: 14.1 µM [inhibitor, partial curve, poor fit].

For `S=C(Nc1cccc(Cl)c1)NC1CCCCC1`, which Potency is on record?
The Potency was inconclusive: 12.6 µM [inhibitor, partial curve].

Which “activity change, negative = inhibition” value does the source give for `COc1ccc(NC(=O)Nc2cc3oc4ccccc4c3cc2OC)cc1` here?
Its value is inactive: 9.54%.

Which Potency does the source give for `Cc1cccc(-n2ncc(Cl)c(Cl)c2=O)c1` here?
Its Potency is inconclusive: 31.6 µM [inhibitor, single point].

With `COc1cccc(/C=C2\SC(=S)N(CCC(=O)NCCc3ccc(O)cc3)C2=O)c1` as the compound, how does the Potency read?
Its Potency is inconclusive: 15.8 µM [inhibitor, single point].

Which Potency does the source give for `C[C@H](CO)N1C[C@H](C)[C@@H](CN(C)S(=O)(=O)c2ccccc2)Oc2ccc(NC(=O)CCN3CCOCC3)cc2C1=O` here?
Its Potency is inconclusive: 2.82 µM [inhibitor, full curve, poor fit].

With `NS(=O)(=O)c1ccc(-c2ccc(/C=C3\NC(=S)NC3=O)o2)cc1` as the compound, how does the Potency read?
Its Potency is inconclusive: 20 µM [inhibitor, single point].

For `C#CCCCCCCC#CCN(C)C`, which “activity change, negative = inhibition” value is on record?
The value was inactive: 7%.

Which Potency does the source give for `Cn1nc(C(F)(F)F)c(-c2ccccc2)c1NC(=O)CSCC(=O)O` here?
Its Potency is inconclusive: 28.2 µM [inhibitor, single point].

With `O=C(C1CCC(Cn2c(=O)c3sccc3n(Cc3cccc(F)c3)c2=O)CC1)N1CCOCC1` (stereo unspecified) as the compound, how does the “activity change, negative = inhibition” value read?
Its value is inactive: 0.294%.

Which Potency does the source give for `CCOC(=O)c1c(CN2CCN(C)CC2)n(C)c2cc(Br)c(OC)cc12` here?
Its Potency is inconclusive: 0.501 µM [inhibitor, full curve, poor fit].

With `O=C1c2cc(Cl)ccc2-c2c(O)cc(Cl)cc21` as the compound, how does the Potency read?
Its Potency is inconclusive: 5.62 µM [inhibitor, partial curve].

For `CC(C)C[C@H]1COCCS(=O)(=O)N1Cc1ccccc1F`, which “activity change, negative = inhibition” value is on record?
Its value is inactive: 7.2%.

For `COc1ccc(NC(=S)NCCSc2ccc(C)cc2)c(OC)c1`, which Potency is on record?
The Potency was inconclusive: 28.2 µM [inhibitor, single point].

With `COc1ccc(C2=NN(C(N)=S)C(c3ccco3)C2)cc1` (stereo unspecified) as the compound, how does the Potency read?
The Potency was inconclusive: 28.2 µM [inhibitor, single point].

Which “activity change, negative = inhibition” value does the source give for `COC(=O)c1ccc(Nc2nc(-c3ccccc3Cl)nc3ccccc23)cc1` here?
Its value is inactive: -20.2%.

With `COc1ccc(S(=O)(=O)Cc2ccc(C(=O)N3CCN(c4cccc(C)c4C)CC3)o2)cc1` as the compound, how does the “activity change, negative = inhibition” value read?
The value was inactive: -24.4%.

With `COc1ccc(S(=O)(=O)Nc2cc3c4c(oc3c3ccccc23)CCCC4=O)cc1` as the compound, how does the Potency read?
The Potency was inconclusive: 7.94 µM [inhibitor, partial curve, poor fit].

With `Cc1ccccc1Nc1nc(N)c(C(=O)c2ccccc2Cl)s1` as the compound, how does the “activity change, negative = inhibition” value read?
The value was inactive: -5.27%.

Which Potency does the source give for `COc1ccccc1Oc1nc(C)c(C(C)=O)cc1C#N` here?
Its Potency is inconclusive: 3.16 µM [inhibitor, partial curve, poor fit].

With `Cc1cc(C)c(OCC(=O)N2CCN(c3ncc(C(F)(F)F)cc3Cl)CC2)c(C)c1` as the compound, how does the “activity change, negative = inhibition” value read?
The value was inactive: -1.32%.

For `Cc1cc(Oc2ccc(Cl)cc2)nc(-c2ccccn2)n1`, which Potency is on record?
Its Potency is inconclusive: 12.6 µM [inhibitor, partial curve, poor fit].

With `CCOC(=O)Cn1cc(/C=C/[N+](=O)[O-])c2ccccc21` as the compound, how does the Potency read?
The Potency was inconclusive: 10 µM [inhibitor, single point].

Which Potency does the source give for `Oc1cc2c(cc1O)C1c3ccc(O)c(O)c3OCC1(O)C2` (stereo unspecified) here?
Its Potency is inconclusive: 28.2 µM [inhibitor, single point].

For `Cc1ccccc1OCC(O)CN1CCN(CCN2C(=O)c3cccc4cccc(c34)C2=O)CC1` (stereo unspecified), which Potency is on record?
Its Potency is inconclusive: 28.2 µM [inhibitor, single point].

For `N#CCC(=O)N/N=C/c1cn(Cc2ccc(Cl)c(Cl)c2)c2ccccc12`, which Potency is on record?
Its Potency is inconclusive: 5.62 µM [inhibitor, full curve, poor fit].

With `CCSc1nnc(NC(=O)c2cc(=O)c3cc(C)ccc3o2)s1` as the compound, how does the “activity change, negative = inhibition” value read?
Its value is inactive: 3.38%.

With `COc1ccccc1/C=C1\SC(=S)N(NS(=O)(=O)c2ccccc2)C1=O` as the compound, how does the Potency read?
Its Potency is inconclusive: 10 µM [inhibitor, single point].

Which Potency does the source give for `CC1(C)CCCC(C)(C)N1CC(O)COCCOc1ccc(Br)cc1` (stereo unspecified) here?
Its Potency is inconclusive: 10 µM [inhibitor, single point].

With `O=C(CCN1C(=O)c2ccccc2Sc2ncccc21)Nc1ccc(F)cc1` as the compound, how does the “activity change, negative = inhibition” value read?
Its value is inactive: -5%.

Which “activity change, negative = inhibition” value does the source give for `O=C(CC(=O)c1ccccc1)Nc1cccnc1Cl` here?
Its value is inactive: 2.55%.

With `NC1(C(=O)O)CC1` as the compound, how does the “activity change, negative = inhibition” value read?
Its value is inactive: 2.69%.

Which “activity change, negative = inhibition” value does the source give for `NC(COCc1ccccc1)c1csc(NC(=O)Nc2cccc(C(F)(F)F)c2)n1` (stereo unspecified) here?
The value was inactive: -15.9%.

Which Potency does the source give for `COc1ccc(C(=O)CSc2nnc(CN3CCCCC3)n2-c2ccc(F)cc2)cc1` here?
Its Potency is inconclusive: 15.8 µM [inhibitor, single point].

For `O=C(Oc1c(Cl)cc(Cl)c2cccnc12)c1cccs1`, which Potency is on record?
The Potency was inconclusive: 3.16 µM [inhibitor, partial curve, poor fit].

For `Cc1nc2cc(C(=O)OCC(=O)N(CC(C)C)C3CCS(=O)(=O)C3)ccc2n1-c1ccccc1` (stereo unspecified), which “activity change, negative = inhibition” value is on record?
The value was inactive: 3.54%.

Which “activity change, negative = inhibition” value does the source give for `Cc1ccc2c(=O)cc(CSc3ncn[nH]3)[nH]c2c1C` here?
The value was inactive: -13%.

Which Potency does the source give for `Cn1c(=O)c(C#N)c(-c2ccc(F)cc2)c2cc(C(=O)c3cc(Cl)cc(Cl)c3O)cnc21` here?
The Potency was inconclusive: 12.6 µM [inhibitor, partial curve, poor fit].

Which Potency does the source give for `CCOc1ccccc1NC(=S)NCc1ccccc1` here?
The Potency was inconclusive: 31.6 µM [inhibitor, single point].

Which Potency does the source give for `CCOc1c(C=C(C#N)C#N)c2ccccc2n1CC` here?
Its Potency is inconclusive: 15.8 µM [inhibitor, partial curve, poor fit].

For `CCCCNC(=O)c1ccc2c(c1)N=C(CC)c1ccccc1S2`, which Potency is on record?
The Potency was inconclusive: 2.51 µM [inhibitor, full curve, poor fit].
